From the supplement of paper PMC8728848
This is one part of the list.

Tests used:
Assay in all cases: glycan array binding signal (z-score within array); higher = stronger binding
Details in all cases: glycan notation: IUPAC condensed, linker removed
Gal(b1-3)GlcNAc(b1-2)Man = biological target: Gal(b1-3)GlcNAc(b1-2)Man
In short: (§1)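 Glycan array data were curated from 3228 arrays in the Consortium for Functional Glycomics database and kept only where the protein sequence was available. Glycan names were converted to IUPAC-condensed notation, and columns mapping to the same glycan were averaged. The binding signal is a within-array Z-score, averaged across arrays of the same protein sequence at different concentrations or buffers and across linkers. Negative Z-scores can be read as non-binding.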

[1] = biological target: Gal(b1-3)GlcNAc(b1-2)Man(a1-3)[Gal(b1-3)GlcNAc(b1-2)Man(a1-6)]Man(b1-4)GlcNAc(b1-4)GlcNAc
In short: as §1

[2] = biological target: Gal(b1-3)GlcNAc(b1-2)Man(a1-3)[Gal(b1-3)GlcNAc(b1-2)Man(a1-6)]Man(b1-4)GlcNAc(b1-4)[Fuc(a1-6)]GlcNAc
In short: as §1

[3] = biological target: Gal(b1-3)GlcNAc(b1-2)Man(a1-3)[GlcNAc(b1-4)][Gal(b1-3)GlcNAc(b1-2)Man(a1-6)]Man(b1-4)GlcNAc(b1-4)GlcNAc
In short: as §1

[4] = biological target: Gal(b1-3)GlcNAc(b1-2)[Gal(b1-3)GlcNAc(b1-6)]Man(a1-6)[Gal(b1-3)GlcNAc(b1-2)Man(a1-3)]Man(b1-4)GlcNAc(b1-4)GlcNAc
In short: as §1

[5] = biological target: Gal(b1-3)GlcNAc(b1-3)Gal(b1-3)GlcNAc
In short: as §1

[6] = biological target: Gal(b1-3)GlcNAc(b1-3)Gal(b1-4)Glc
In short: as §1

[7] = biological target: Gal(b1-3)GlcNAc(b1-3)Gal(b1-4)GlcNAc
In short: as §1

[8] = biological target: Gal(b1-3)GlcNAc(b1-3)Gal(b1-4)GlcNAc(b1-2)Man(a1-3)[Gal(b1-3)GlcNAc(b1-3)Gal(b1-4)GlcNAc(b1-2)Man(a1-6)]Man(b1-4)GlcNAc(b1-4)GlcNAc
In short: as §1

[9] = biological target: Gal(b1-3)GlcNAc(b1-3)Gal(b1-4)GlcNAc(b1-2)[Gal(b1-3)GlcNAc(b1-3)Gal(b1-4)GlcNAc(b1-6)]Man(a1-6)[Gal(b1-3)GlcNAc(b1-3)Gal(b1-4)GlcNAc(b1-2)Man(a1-3)]Man(b1-4)GlcNAc(b1-4)[Fuc(a1-6)]GlcNAc
In short: as §1

[10] = biological target: Gal(b1-3)GlcNAc(b1-3)Gal(b1-4)GlcNAc(b1-3)Gal(b1-4)GlcNAc(b1-2)[Gal(b1-3)GlcNAc(b1-3)Gal(b1-4)GlcNAc(b1-3)Gal(b1-4)GlcNAc(b1-6)]Man(a1-6)[Gal(b1-3)GlcNAc(b1-3)Gal(b1-4)GlcNAc(b1-3)Gal(b1-4)GlcNAc(b1-2)Man(a1-3)]Man(b1-4)GlcNAc(b1-4)[Fuc(a1-6)]GlcNAc
In short: as §1

[11] = biological target: Gal(b1-3)GlcNAc(b1-3)Gal(b1-4)GlcNAc(b1-6)[Gal(b1-3)GlcNAc(b1-3)]Gal(b1-4)Glc
In short: as §1

[12] = biological target: Gal(b1-3)GlcNAc(b1-3)Gal(b1-4)[Fuc(a1-3)]GlcNAc
In short: as §1

[13] = biological target: Gal(b1-3)GlcNAc(b1-3)Gal(b1-4)[Fuc(a1-3)]GlcNAc(b1-6)[Gal(b1-3)GlcNAc(b1-3)]Gal(b1-4)Glc
In short: as §1

[14] = biological target: Gal(b1-3)GlcNAc(b1-3)GalNAc
In short: as §1

[15] = biological target: Gal(b1-3)GlcNAc(b1-6)Gal(b1-4)GlcNAc
In short: as §1

[16] = biological target: Gal(b1-3)GlcNAc(b1-6)GalNAc
In short: as §1

[17] = biological target: Gal(b1-3)GlcNAc(b1-6)[Gal(b1-3)]GalNAc
In short: as §1

Gal(b1-3)GlcNAc6S = biological target: Gal(b1-3)GlcNAc6S
In short: as §1

[18] = biological target: Gal(b1-3)[Fuc(a1-4)]GlcNAc
In short: as §1

[19] = biological target: Gal(b1-3)[Fuc(a1-4)]GlcNAc(b1-2)Man
In short: as §1

[20] = biological target: Gal(b1-3)[Fuc(a1-4)]GlcNAc(b1-2)Man(a1-3)[Gal(b1-3)[Fuc(a1-4)]GlcNAc(b1-2)Man(a1-6)]Man(b1-4)GlcNAc(b1-4)GlcNAc
In short: as §1

[21] = biological target: Gal(b1-3)[Fuc(a1-4)]GlcNAc(b1-2)Man(a1-3)[Gal(b1-3)[Fuc(a1-4)]GlcNAc(b1-2)Man(a1-6)]Man(b1-4)GlcNAc(b1-4)[Fuc(a1-6)]GlcNAc
In short: as §1

[22] = biological target: Gal(b1-3)[Fuc(a1-4)]GlcNAc(b1-3)Gal(b1-3)[Fuc(a1-4)]GlcNAc
In short: as §1

[23] = biological target: Gal(b1-3)[Fuc(a1-4)]GlcNAc(b1-3)Gal(b1-4)GlcNAc
In short: as §1

[24] = biological target: Gal(b1-3)[Fuc(a1-4)]GlcNAc(b1-3)Gal(b1-4)[Fuc(a1-3)]GlcNAc
In short: as §1

[25] = biological target: Gal(b1-3)[Fuc(a1-4)]GlcNAc(b1-6)GalNAc
In short: as §1

[26] = biological target: Gal(b1-3)[GlcNAc(b1-6)]GalNAc
In short: as §1

[27] = biological target: Gal(b1-3)[Neu5Ac(a2-6)]GalNAc
In short: as §1

[28] = biological target: Gal(b1-3)[Neu5Ac(a2-6)]GlcNAc(b1-4)Gal(b1-4)Glc
In short: as §1

[29] = biological target: Gal(b1-3)[Neu5Ac(a2-6)]GlcNAc(b1-6)Gal(b1-4)Glc
In short: as §1

[30] = biological target: Gal(b1-3)[Neu5Ac(b2-6)]GalNAc
In short: as §1

Gal(b1-4)Gal = biological target: Gal(b1-4)Gal
In short: as §1

[31] = biological target: Gal(b1-4)GalNAc(a1-3)[Fuc(a1-2)]Gal(b1-4)GlcNAc
In short: as §1

[32] = biological target: Gal(b1-4)GalNAc(b1-3)[Fuc(a1-2)]Gal(b1-4)GlcNAc
In short: as §1

Gal(b1-4)Glc = biological target: Gal(b1-4)Glc
In short: as §1

Gal(b1-4)Glc6S = biological target: Gal(b1-4)Glc6S
In short: as §1

Gal(b1-4)GlcNAc = biological target: Gal(b1-4)GlcNAc
In short: as §1

B1: PpFlo1 (Pichia pastoris) (protein)
chain: MGSSHHHHHHSSGLVPRGSHMQESGDGDISDSAYACDIDATRYDGFNATIYEFQPGDGRLTRDPVFMSTGYLNRTQLHSITGVTDPGFSIYTPGVPTTTLYGIPNVNWENLLLELKGYFRAEVSGDYGLSLRNIDDSAILFFGKETAFQCCNENSISNEASTDYSLFTIFRQEGDETTNLDSFTYTQYLEAGKYYPVRTFFVNIERHAVFNFTMTLPDGTELTDFHNYIYQFGALDEEQCQA
- glycan array binding signal (z-score) (Gal(b1-3)GlcNAc(b1-2)Man): -0.574
- glycan array binding signal (z-score) [1]: -0.158
- glycan array binding signal (z-score) [2]: 0.388
- glycan array binding signal (z-score) [3]: 0.713
- glycan array binding signal (z-score) [4]: 0.162
- glycan array binding signal (z-score) [5]: -0.344
- glycan array binding signal (z-score) [6]: -0.547
- glycan array binding signal (z-score) [7]: -0.245
- glycan array binding signal (z-score) [8]: 0.317
- glycan array binding signal (z-score) [9]: -0.145
- glycan array binding signal (z-score) [10]: 0.485
- glycan array binding signal (z-score) [11]: -0.268
- glycan array binding signal (z-score) [12]: -0.202
- glycan array binding signal (z-score) [13]: -0.148
- glycan array binding signal (z-score) [14]: -0.531
- glycan array binding signal (z-score) [15]: -0.353
- glycan array binding signal (z-score) [16]: -0.654
- glycan array binding signal (z-score) [17]: -0.33
- glycan array binding signal (z-score) (Gal(b1-3)GlcNAc6S): -0.012
- glycan array binding signal (z-score) [18]: -0.359
- glycan array binding signal (z-score) [19]: 1.02
- glycan array binding signal (z-score) [20]: -0.787
- glycan array binding signal (z-score) [21]: 0.159
- glycan array binding signal (z-score) [22]: -0.018
- glycan array binding signal (z-score) [23]: -0.765
- glycan array binding signal (z-score) [24]: 1.2
- glycan array binding signal (z-score) [25]: 0.132
- glycan array binding signal (z-score) [26]: 0.099
- glycan array binding signal (z-score) [27]: 0.609
- glycan array binding signal (z-score) [28]: 0.298
- glycan array binding signal (z-score) [29]: 1.21
- glycan array binding signal (z-score) [30]: -0.233
- glycan array binding signal (z-score) (Gal(b1-4)Gal): -0.334
- glycan array binding signal (z-score) [31]: -0.298
- glycan array binding signal (z-score) [32]: 0.161
- glycan array binding signal (z-score) (Gal(b1-4)Glc): -0.034
- glycan array binding signal (z-score) (Gal(b1-4)Glc6S): -0.328
- glycan array binding signal (z-score) (Gal(b1-4)GlcNAc): -0.376
